The whole screen tested about 310,000 compounds, of which about 2,200 (0.71%) showed an effect of 50% or more. Effects have a minus sign here. Some of the results follow.

Chain of human ether-à-go-go-related gene (hERG) potassium channel (Q12809 whole entry, looked up): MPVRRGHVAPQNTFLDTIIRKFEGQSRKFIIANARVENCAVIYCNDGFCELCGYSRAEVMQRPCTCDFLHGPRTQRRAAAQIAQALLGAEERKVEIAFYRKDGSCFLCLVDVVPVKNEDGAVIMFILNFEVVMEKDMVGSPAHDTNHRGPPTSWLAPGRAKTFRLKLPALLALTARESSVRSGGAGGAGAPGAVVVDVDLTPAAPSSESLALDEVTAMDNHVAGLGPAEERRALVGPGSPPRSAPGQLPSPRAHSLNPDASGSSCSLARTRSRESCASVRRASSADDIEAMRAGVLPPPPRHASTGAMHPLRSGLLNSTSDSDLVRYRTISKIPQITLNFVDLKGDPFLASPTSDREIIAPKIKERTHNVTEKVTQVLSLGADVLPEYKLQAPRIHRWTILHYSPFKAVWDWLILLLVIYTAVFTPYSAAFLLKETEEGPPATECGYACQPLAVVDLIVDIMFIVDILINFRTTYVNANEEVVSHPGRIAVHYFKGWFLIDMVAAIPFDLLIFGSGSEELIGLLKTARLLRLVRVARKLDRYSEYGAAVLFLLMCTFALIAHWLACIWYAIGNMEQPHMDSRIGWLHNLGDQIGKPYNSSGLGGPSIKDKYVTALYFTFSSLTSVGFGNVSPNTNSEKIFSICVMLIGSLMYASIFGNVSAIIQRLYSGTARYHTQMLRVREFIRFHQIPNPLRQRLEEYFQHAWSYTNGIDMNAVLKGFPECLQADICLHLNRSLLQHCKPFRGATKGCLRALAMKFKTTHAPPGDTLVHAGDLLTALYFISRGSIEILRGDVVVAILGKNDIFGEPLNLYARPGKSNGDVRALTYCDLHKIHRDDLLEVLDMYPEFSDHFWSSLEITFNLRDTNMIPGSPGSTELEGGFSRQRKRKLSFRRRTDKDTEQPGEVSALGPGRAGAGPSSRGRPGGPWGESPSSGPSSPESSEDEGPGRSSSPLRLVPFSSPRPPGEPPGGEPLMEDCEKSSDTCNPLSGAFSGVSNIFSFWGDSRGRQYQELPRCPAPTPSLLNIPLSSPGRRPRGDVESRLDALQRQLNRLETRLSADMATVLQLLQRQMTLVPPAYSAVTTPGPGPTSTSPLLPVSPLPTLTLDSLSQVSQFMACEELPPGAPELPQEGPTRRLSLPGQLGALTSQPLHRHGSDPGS

This assay concerns the target human ether-à-go-go-related gene (hERG) potassium channel (human, UniProt Q12809). Put plainly: primary screen, population patch clamp on CHO cells stably expressing hERG.
With `Cc1c(-c2ccccc2Cl)nc2ccccc2c1C(=O)O`, the “hERG current change (%, negative = inhibition) at 1uM” value came to 8.99%.
In the case of `N#Cc1c(NC(=O)COC(=O)c2ccc(S(=O)(=O)N3CCCC3)cc2)sc2c1CCCCC2`, the “hERG current change (%, negative = inhibition) at 1uM” value came to 6.34%.
In the case of `CCOC(=O)C1=C(N)Oc2c(oc(CO)cc2=O)C1c1ccccc1` (centres unmarked), the “hERG current change (%, negative = inhibition) at 1uM” value is reported as 0.382%.
To `CN(CC(=O)Nc1ccc(F)cc1)C(=O)COC(=O)CNC(=O)c1ccc(Cl)cc1Cl` belongs 9.44%; to `Cc1ccc(NC(=O)[C@H](CC(C)C)NC(=O)[C@@H]2Cc3ccccc3CN2)cc1`, 10.1%; to `O=C(O)c1ccc(NC(=O)C2C3CCC(O3)C2C(=O)O)cc1` (centres unmarked), 14.4%.
To `CCOC(=O)C1=C(C)N(Cc2ccc(C(=O)O)cc2)C(=O)NC1c1ccc([N+](=O)[O-])cc1` (centres unmarked) belongs 14%; to `COc1ccccc1CCNC(=O)/C(=C/c1cccnc1)NC(=O)c1ccccc1`, -1.85%; to `CCN1CCN(C(=S)NC(=O)/C=C/c2cccs2)CC1`, 10.4%.
On to `C#CCn1cc(Cl)cc(C(=O)Nc2ccccc2)c1=O`, for which the “hERG current change (%, negative = inhibition) at 1uM” value amounted to 17.3%.
As for `CCN(CC)c1ccc(NC(=O)CSc2ccsc2[N+](=O)[O-])c(C)c1`, the figure is 6.29%; as for `O=C1CC(N2CCSCC2)C(=O)N1c1ccc(F)cc1` (centres unmarked), -3.86%.
On to `COc1ccc(NC(=O)CSc2nc3ccsc3c(=O)n2CCC(=O)O)c(OC)c1`, for which the “hERG current change (%, negative = inhibition) at 1uM” value stood at 12%.
Regarding `CCc1nnc(NC(=O)CSc2ccc(-c3ccc(F)cc3)nn2)s1`, the “hERG current change (%, negative = inhibition) at 1uM” value is 18%.
As for `CCOC(=O)c1c(C)[nH]c(C(=O)OCc2csc(CC(=O)Nc3ccccc3C)n2)c1C`, the figure is 11.6%; as for `Cn1c(C(=O)NCCN2CCc3ccccc3C2)cc2c(=O)n(C)c3ccccc3c21`, 6.51%.
As for `O=C(CSc1nncs1)Nc1cc(-c2ccccc2)nn1-c1ccccc1`, the figure is -1.34%; as for `O=C(NCc1ccccc1)c1ccc(N2CCC3(CC2)CC(c2ccccc2)=NO3)c([N+](=O)[O-])c1`, 12.2%.
To `Cc1ccc(Cn2nc(-c3ccccc3)nc2-c2ccccc2)cc1` belongs 10.6%.
As for `O=C(CSC(=S)N1CCCC1)N1CCN(S(=O)(=O)c2ccccc2F)CC1`, the “hERG current change (%, negative = inhibition) at 1uM” value is reported as -2.31%.
As for `O=C(NNc1nc2c(F)cc(F)cc2s1)C1COc2ccccc2O1` (centres unmarked), the “hERG current change (%, negative = inhibition) at 1uM” value is recorded as -2.36%.
For the molecule `CC(C)(C)NC(=O)c1cccc2c1OC(C)(C)C2`, the “hERG current change (%, negative = inhibition) at 1uM” value is -5.35%.
As for `COc1ccc(N2CCN(C(=O)CNS(=O)(=O)c3ccc(Br)s3)CC2)cc1`, the figure is 0.732%.
Take `CCOc1ccccc1N(C(C)=O)S(=O)(=O)c1ccc(Cl)cc1`: the “hERG current change (%, negative = inhibition) at 1uM” value was found to be 11.5%.
On to `CCCCc1c(O)nc(SCC(=O)NCC2CCCO2)[nH]c1=O` (centres unmarked), for which the “hERG current change (%, negative = inhibition) at 1uM” value is given as 0.0534%.
To `O=C(NCc1ccc(Cl)c(Cl)c1)c1cccnc1` belongs 8.17%.
To `COc1cccc(Sc2cc(N3CCOCC3)nc(-c3ccccc3)n2)c1` belongs 5.83%; to `O=C(NNC(=O)c1ccccc1F)c1cccc(-n2cccc2)c1`, 2.75%.
To `CCCOc1ccc(NC(=O)CC2C(=O)N(Cc3ccccc3)C(=S)N2Cc2cccs2)cc1` (centres unmarked) belongs 14.9%; to `O=c1cc(-c2ccccc2Cl)oc2c(NS(=O)(=O)c3cccc4nsnc34)ccc(O)c12`, 12.2%.
As for `COCCCNC(=O)c1c(N)n(-c2ccc(S(N)(=O)=O)cc2)c2nc3ccccc3nc12`, the “hERG current change (%, negative = inhibition) at 1uM” value is on record as -4.03%.
To `CSc1ccc(CN(C)C(=O)c2ccc(S(=O)(=O)Nc3ccccc3)cc2)cc1` belongs 6.81%; to `CCOc1nonc1C(=N)/C(C(C)=O)=C(\C)O`, 8.1%; to `COc1ccccc1N1CCN(/N=C\C(Br)=C\c2ccccc2)CC1`, 7.48%.
As for `CC(C)(C)N1CC(C(=O)Nc2ccc(S(=O)(=O)N3CCCCC3)cc2)CC1=O` (centres unmarked), the “hERG current change (%, negative = inhibition) at 1uM” value was 7.58%.
To `O=C(c1ccccc1F)N1CCN(c2cccc(C(F)(F)F)c2)CC1` belongs 14%; to `COc1cccc(OC)c1C(=O)Nc1cccc(C(C)=O)c1`, 8.94%.
As for `CCCCn1c(N)c(Sc2ccc([N+](=O)[O-])cc2)c(=O)[nH]c1=O`, the figure is -24%; as for `O=C1CCCc2[nH]c3cccc(/C(=C/c4ccccc4)c4ccccc4)c3c21`, 10.7%.
As for `O=C1c2ccccc2CN1Cc1ccccc1`, the figure is 12.3%; as for `CC1(C)C(c2ccccc2)=NC(c2cccnc2)=[N+]1[O-]`, 14.4%.
For the molecule `CCN(CC)C(=O)CC(c1ccc(OC)cc1)c1c(O)cc(OC)cc1OC` (centres unmarked), the “hERG current change (%, negative = inhibition) at 1uM” value is reported as -3.63%.
As for `O=S(=O)(NN=C1CCCCCC1)c1ccccc1`, the figure is 4.49%.
Consider `C=CCn1c(SCC(=O)c2ccc(O)c(O)c2)nnc1-c1ccccc1OC`, for which the “hERG current change (%, negative = inhibition) at 1uM” value stood at 4.28%.
Consider `COCCCNC(=O)CN1C(=O)COc2ccc(S(=O)(=O)N3CCCCCC3)cc21`, for which the “hERG current change (%, negative = inhibition) at 1uM” value is reported as 15.6%.
To `O=C(COC(=O)Cc1cccc(C(F)(F)F)c1)NC1CC1` belongs 10.7%.
To `COc1ccc2nc(-c3ccccc3)[nH]c2c1` belongs 11.2%; to `Cc1cccc(Nc2ccccc2C(=O)OCC(=O)NCc2ccco2)c1C`, 1.37%; to `O=S(=O)(N/N=C\C=C\c1ccccc1)c1ccc(Cl)cc1`, -7.42%.
As for `CCOC(=O)CCc1c(C)nc2c(c(C)nn2-c2ccccc2)c1C`, the figure is 6.45%; as for `CC(C)Cn1c(N)c(C(=O)COC(=O)/C=C/c2ccccc2)c(=O)n(C)c1=O`, 6.62%.
Turning to `CCC(=O)c1ccc(OCC(O)CNCCc2ccc(Cl)cc2)cc1` (centres unmarked), the “hERG current change (%, negative = inhibition) at 1uM” value was -69.9%.
As to `O=C(Nc1cc(Cl)ccc1Cl)c1ccc(OC(=O)c2ccco2)cc1`, the “hERG current change (%, negative = inhibition) at 1uM” value is given as 2.48%.
To `COc1cccc2sc(NC(=O)c3ccc(Br)s3)nc12` belongs 12.5%; to `CCn1c(SCC(=O)N2CCCc3ccccc32)nc2ccccc2c1=O`, 7.83%.
For the molecule `COc1cc(NC(=O)CSc2ccc(-c3ccco3)nn2)cc(OC)c1`, the “hERG current change (%, negative = inhibition) at 1uM” value is recorded as 11.3%.
To `CCNc1ccccc1CP(=O)(c1ccccc1)c1ccccc1O` (centres unmarked) belongs 22.1%.
As for `O=c1oc2ccccc2c(CNc2ccccc2)c1[N+](=O)[O-]`, the figure is 11.1%; as for `CC(C)C[C@H](NC(=O)N1CCn2c1nc1ccccc12)C(=O)N[C@@H](Cc1ccccc1)C(=O)O`, -3.94%.
As to `COc1ccccc1N1CCN(S(=O)(=O)CCNC(=O)C2CC(=O)N(c3ccccc3)C2)CC1` (centres unmarked), the “hERG current change (%, negative = inhibition) at 1uM” value is 11.1%.
Turning to `CCOC(=O)c1cc(NC(=O)N2CCCc3ccccc32)c(C)nc1C`, the “hERG current change (%, negative = inhibition) at 1uM” value stood at 9.74%.
In the case of `Cc1n[nH]c(C)c1Cc1ccc(C(=O)O)cc1`, the “hERG current change (%, negative = inhibition) at 1uM” value was 11.4%.
To `Cc1cc(C)n2nc(SCC(=O)N(C)Cc3ccccc3)nc2n1` belongs 8.27%; to `Cc1ccc(S(=O)(=O)n2ccc(OC(=O)c3cccs3)n2)cc1`, 13.1%.
On to `CC(=O)Nc1ccc(S(=O)(=O)NCc2ccc(C(=O)NCc3ccc(Cl)cc3)cc2)cc1`, for which the “hERG current change (%, negative = inhibition) at 1uM” value is 13%.
Take `Cc1ccc(S(=O)(=O)NCc2c(Cl)cccc2Oc2ccccc2)cc1`: the “hERG current change (%, negative = inhibition) at 1uM” value is listed as 12.7%.
As for `Cc1c(CN2CCCCC2)c(O)n(CCO)c(=O)c1C#N`, the figure is 11.3%; as for `Cc1cc(Cl)ccc1OCC(=O)Nc1ccc2oc(=O)ccc2c1`, 5.14%; as for `COc1ccc(NC(=O)CS(=O)CC(=O)NCc2cccc(C(F)(F)F)c2)cc1` (centres unmarked), 7.17%.
Turning to `Cc1nc2cc(C(F)(F)F)ccc2n1CCNc1nc(-c2cc(Cl)c(N)c(Cl)c2)cs1`, the “hERG current change (%, negative = inhibition) at 1uM” value is recorded as 9.16%.
As for `Cc1ccc2oc(=O)c3cc(C(=O)Nc4cc(-c5cccc(F)c5)no4)sc3c2c1`, the figure is 5.77%; as for `C(=N\c1nc2ccccc2n1CCN1CCCCC1)/c1cccs1`, -3.86%; as for `CCOc1ccc(S(=O)(=O)n2cnc3ccccc32)cc1`, 14.3%.
To `O=C(O)CCCNC(=O)c1cncc(Br)c1` belongs 14.7%; to `O=C(NCc1cccs1)C1CC(=O)N(c2ccccc2)C1` (centres unmarked), -3.14%.
To `O=C(NC12CC3CC(CC(C3)C1)C2)N1CCCC(CO)C1` (centres unmarked) belongs 12.7%.
On to `CSc1nc2c(c(=O)[nH]c(=O)n2C)n1Cc1ccc(Cl)cc1`, for which the “hERG current change (%, negative = inhibition) at 1uM” value amounted to 15.4%.
Take `Cc1ccc(/C=C2\C(=O)NC(=S)N(c3cccc(F)c3)C2=O)o1`: the “hERG current change (%, negative = inhibition) at 1uM” value turned out to be 17.2%.
To `CN(CC(=O)Nc1ccccc1Cl)C(=O)C1CCN(C(=O)c2ccc(F)cc2)CC1` belongs 0.838%; to `O=C(COC(=O)CCCOc1ccccc1)NC1CCS(=O)(=O)C1` (centres unmarked), -10.9%.
To `COc1ccc(NCc2nnc(SCC(=O)Nc3ccccc3OC)o2)cc1` belongs 0.173%.
As for `O=C1CC(NCC2CCCO2)C(=O)N1c1ccc(F)cc1` (centres unmarked), the figure is 1.73%.
On to `Cc1noc(/C=C/c2ccccn2)c1[N+](=O)[O-]`, for which the “hERG current change (%, negative = inhibition) at 1uM” value was 15.9%.
As for `CCOC(=O)CNC(=O)CSc1nc(N)cc(N)n1`, the figure is 10.6%; as for `O=C(CN1CCc2ccccc2C1)Nc1ccc(F)cc1F`, -8.83%.
In the case of `CSc1ccccc1NC(=O)CN(C)C(=O)Cc1c(F)cccc1Cl`, the “hERG current change (%, negative = inhibition) at 1uM” value turned out to be 15.1%.
As for `CCCc1n[nH]c(=S)n1Cc1ccco1`, the figure is 12.9%; as for `COC(=O)CNS(=O)(=O)c1ccc(C)cc1`, 11.1%.
As for `O=C(N/N=C/c1cc(Cl)cc([N+](=O)[O-])c1O)c1cc(-c2ccccn2)nc2ccccc12`, the figure is 14.1%.

Source of the values: paper PMC4336329 (PLoS ONE, 2015).
